Read counts are not given, so values of variants with three or more changes are uncertain.
B1: LINE1-mini (parent)
chain: GGCAGAGCUCAACACAGCGUGGCAAAGUGGCUGUGGCUAGACUGCC

Variants of: B1
Experiment: self-cleavage, relative activity (ratio to wild type); higher = more cleavage; in vitro, sequencing; the parent is a self-cleaving ribozyme
Work on A14G A24G G33A U34C G40U yielded a self-cleavage of 0.14. Variant C13G G35U U38G has a self-cleavage of 0.05. For A14C C18A U20C C45A C46U, the self-cleavage was 0.04. Variant C13U A24C U34A has a self-cleavage of 0.02. C13U A16G G19A U32C U34C showed a self-cleavage of 0.12. Work on C13U C18A G22U A24C G33C A41G yielded a self-cleavage of 0.03. A14C C15U A39C gave a self-cleavage of 0.03. In the case of C13G G19C A26U G30U A39G, the self-cleavage is reported as 0.02. Variant A14C C15G G35A A41U U43A has a self-cleavage of 0.01. For A14G G19A U28G G33A C42G, the self-cleavage was 0.03. Variant C13U A24C G35A has a self-cleavage of 0.4. A14U A26G C37A showed a self-cleavage of 0.05. For A14U A26C C42A, the self-cleavage was 0.03. In the case of C13G G17U C45U, the self-cleavage is reported as 0.1. C13G G27C G35C A39G showed a self-cleavage of 0.42. A14C C31U G33C gave a self-cleavage of 0.03. A14C C23A C42G showed a self-cleavage of 0.19. In the case of C13U G19U G21U A41G, the self-cleavage is reported as 0.04. For A14G A25C U28C G30U, the self-cleavage was 0.14. A14G G17U G21U C31U showed a self-cleavage of 0.01. For A14G G29U G33A, the self-cleavage was 0.06. In the case of C13U C18U G22U C37G, the self-cleavage is reported as 0.02. In the case of C13U U38C A39G C46U, the self-cleavage is reported as 0.08. Work on A14G U34C C37G yielded a self-cleavage of 0.01. For C13G G19U G30A A41G, the self-cleavage was 0.04. Work on A14U C15G A16G yielded a self-cleavage of 0.01. With C13U U20G G33U the self-cleavage was 0.08. Variant C13U G17A G44C has a self-cleavage of 0.05. In the case of C13G G19A G22U G44C, the self-cleavage is reported as 0.06. For A14G C18U G27A U28C, the self-cleavage was 0.03. For A14C G19C G36U U43A, the self-cleavage was 0.04. With A14C C37U C42U the self-cleavage was 0.18. C13G U34A A41G showed a self-cleavage of 0.08. For A14C G35U G44U, the self-cleavage was 0.07. With A14U C15G A16C C31U the self-cleavage was 0.01. Variant C13U G17U U28C has a self-cleavage of 0.04. A14C G19C U34G showed a self-cleavage of 0.57. Variant C13U U28C C46A has a self-cleavage of 0.06. Variant A14G C15U G19C G27A has a self-cleavage of 0.34. C13U G17A A24U A26G U38A showed a self-cleavage of 0.05. For A14C G22A G40C, the self-cleavage was 0.01. C13G G21U C23A G30U C31A U38A C42A G44U showed a self-cleavage of 0.07. A14U C23A G40A showed a self-cleavage of 0.08. A14G G19U A24C showed a self-cleavage of 0.04. For A14G G36C C42G, the self-cleavage was 0.01. C13U G19U C31A G33U gave a self-cleavage of 0.19. With C13U G17U G22A A26U the self-cleavage was 0.06. Work on C13U G22A G27C C37A yielded a self-cleavage of 0.08. For A14G C18A G27U C37A, the self-cleavage was 0.03. With C13U C23A G40C the self-cleavage was 0.02. A14C G19U G36A showed a self-cleavage of 0.05. For C13G G29U G40U C46G, the self-cleavage was 0.09. For C13U G21A G29C, the self-cleavage was 0.19. With C13U A24U G36C the self-cleavage was 0.03. A14U C23U U38G C46G showed a self-cleavage of 0.03. Work on A14U C23G C31G yielded a self-cleavage of 0.01. C13U A25C U28A C31A C45G gave a self-cleavage of 0.03. A14G A24G C42G showed a self-cleavage of 0. A14C A26U G30C C31A G36C gave a self-cleavage of 0.02. With C13G G22C G30A C46U the self-cleavage was 0.02. With C13G G29A G36A U38G the self-cleavage was 0.02. Variant A14G U20C C23G has a self-cleavage of 0.34. Work on A14C G21A C46G yielded a self-cleavage of 0.09. Variant A14C A16G U20A C37A has a self-cleavage of 0.1. With A14U A26C G33C the self-cleavage was 0.02. In the case of C13U A25C C45U, the self-cleavage is reported as 0.02. Variant C13U C23U U32C U38A has a self-cleavage of 0.03. Variant A14C G22C U28G has a self-cleavage of 0.07. C13U A16U U20C U32G A41U G44U showed a self-cleavage of 0.02. A14C U32A C46A showed a self-cleavage of 0.03. For A14G G29U G35U C37U U38G C45A, the self-cleavage was 0. Work on C13G G35A A41G yielded a self-cleavage of 0.01. With A14U A16C G19U A24G G36U the self-cleavage was 0.01. In the case of C13U G22A C37U, the self-cleavage is reported as 0.87. With C13U U28A C31A C46A the self-cleavage was 0.25. With A14G G21A U28G C37U the self-cleavage was 0.01. For A14C A39G C46U, the self-cleavage was 0.01. A14G C15G G17A gave a self-cleavage of 0.05. C13U A16G U34G showed a self-cleavage of 0.01. Work on C13U A16G G33C U34C yielded a self-cleavage of 0.02. In the case of A14C C42U C45U, the self-cleavage is reported as 0.09. With A14G U38G A39C the self-cleavage was 0.07. A14U C31U C46G showed a self-cleavage of 0.02. For A14U A24G C45A, the self-cleavage was 0.06. With A14G C15A A26G G27A U34G the self-cleavage was 0.38. Work on C13U G21C U34C yielded a self-cleavage of 0.03. With A14C C15U C42G C46G the self-cleavage was 0. A14U C15A U20C G27A G29U G33U gave a self-cleavage of 0.09. C13U G35A U38C showed a self-cleavage of 0.15. With C13U G21C G29U the self-cleavage was 0.47. In the case of A14U A16C C46G, the self-cleavage is reported as 0.11. In the case of A14G A25C G40U, the self-cleavage is reported as 0.18. A14C A24C U28G showed a self-cleavage of 0. Work on C13U C15A C18A C37G yielded a self-cleavage of 0.02. For C13U A24U G29A G30U G33C A41U C42G, the self-cleavage was 0.02. A14C G27A C37U showed a self-cleavage of 0.02. In the case of C13U G30U C37U, the self-cleavage is reported as 0.01. Work on C13U U34A C45U yielded a self-cleavage of 0.13. Variant A14G G35A C45A has a self-cleavage of 0.08. Work on A14C A16C G22C A24G A26C G29A yielded a self-cleavage of 0.19. C13G G33U C37U C45A gave a self-cleavage of 0.03. Work on C13U A16U G36A yielded a self-cleavage of 0.17. For C13U A16G G17C C18A, the self-cleavage was 0.07. In the case of C13U C42A C45U, the self-cleavage is reported as 0.14. With A14C G27A U38G the self-cleavage was 0.06. With C13U A14G G30U the self-cleavage was 0.15. Work on A14C G35U C37G C42G G44A yielded a self-cleavage of 0.08. With A14U C15A C46G the self-cleavage was 0.15. Work on C13U C15A G17U G21A A24C G27C G33U U38A yielded a self-cleavage of 0.06. For A14G C15U G17C U28G, the self-cleavage was 0.03. A14G U28C G35C showed a self-cleavage of 0.05. Variant C13U C15G G22C U28G G29U C45G has a self-cleavage of 0.02. C13U A41U C46A gave a self-cleavage of 0. A14C G36C C42U showed a self-cleavage of 0.02. A14C G21U C31U gave a self-cleavage of 0.01. C13U G30A C42G gave a self-cleavage of 0.03. For A14C G21U G22U, the self-cleavage was 0.13. A14C G17U G19C A26C C46G showed a self-cleavage of 0.1. Variant A14G C15G C23G U28G A41C has a self-cleavage of 0.1. Variant A14G A24U C46U has a self-cleavage of 0.38. Variant A14G G27U U28C C37A has a self-cleavage of 0.07. A14G A24C A39C gave a self-cleavage of 0.04. C13U C18G A24G A26C G30U C31A showed a self-cleavage of 0.04. C13U G19U G30A C31A C42A C45G showed a self-cleavage of 0.02. Variant C13G G21U G33U has a self-cleavage of 0.05. A14U C31U A39U showed a self-cleavage of 0.03. With A14G A16U U28A A39G the self-cleavage was 0.01. C13U A14G G17A G21C G22U C31A C42U gave a self-cleavage of 0.01. A14C G17C A24U U28A A39U gave a self-cleavage of 0.02. For C13G G33C G35U G36U, the self-cleavage was 0.04. With A14C G22A G27C A39U the self-cleavage was 0.02. For C13G G21A G36A C46A, the self-cleavage was 0.04. Work on C13G G36U C46U yielded a self-cleavage of 0.06. For C13U U38C C46U, the self-cleavage was 0.15. With C13G G21A A41G the self-cleavage was 0.01. Variant C13U G33A U34C G36U has a self-cleavage of 0.12. A14U C18G U20C G21C G29A gave a self-cleavage of 0.06. A14G G21C U43A gave a self-cleavage of 0.11. C13U C18G G29A G36C G44U showed a self-cleavage of 0.04. C13U G33C C45G gave a self-cleavage of 0.01. Variant A14C A24U A41G has a self-cleavage of 0.07. With A14U C23G G35A the self-cleavage was 0.07. Work on C13G G19A U34C G35C yielded a self-cleavage of 1.18. With A14G C15A C23A G40C the self-cleavage was 0.02. Variant A14G G29A G33U has a self-cleavage of 0.05. Work on C13U U28A C37U U38C yielded a self-cleavage of 0.03. Work on A14U C18G G35U yielded a self-cleavage of 0.03. With A14U A16G C18G A25C G44U the self-cleavage was 0.02. A14G C31U A41U gave a self-cleavage of 0.03. Work on A14C C31G A41U yielded a self-cleavage of 0.02. C13U A24C U28G G40C gave a self-cleavage of 0.03. In the case of A14G C18U A24G G30C U38G C46U, the self-cleavage is reported as 0.02. C13U G21C C23G showed a self-cleavage of 0.08. C13G G17U G21U U28G C37A showed a self-cleavage of 0.05. A14G G21U U28A G30U U32A C46G gave a self-cleavage of 0.01. Variant C13G U34A C45U has a self-cleavage of 0.06. A14G A25C C37U showed a self-cleavage of 0.02. Work on C13G G33U G36A yielded a self-cleavage of 0.03. Variant A14G A25C U43G has a self-cleavage of 0. For A14C A16G C42A G44A, the self-cleavage was 0.03. Work on C13U U28G G40C C46U yielded a self-cleavage of 0.07. Work on A14G A24G G33U C45U yielded a self-cleavage of 0.07. In the case of C13U U28C A39G A41U G44A C46G, the self-cleavage is reported as 0.09. For A14G C15U G17A G22U U38G, the self-cleavage was 0. Work on A14G A16C U20C G40C yielded a self-cleavage of 0.01. C13U A39C C42G U43C G44A gave a self-cleavage of 0.01. Work on C13G G29U G44U yielded a self-cleavage of 0.16.
